Measured values published in the supplement of paper PMC5499739.
Over roughly 16,000 sequences, “Z-score” has its median near -0.37; the highest 2% begin near 3.1. This is one part of the list.

System: RBM10 RRM1-ZnF-RRM2 (GST-tagged construct)
Assay: RNAcompete 7-mer binding Z-score; higher = stronger binding preference
Summary of the method: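 GST-tagged RBM10 constructs (20 pmol) and a designed pool of 241 399 RNAs up to 41 nt (1.5 nmol) were allowed to bind for 30 min at 4°C in 1 ml Hepes pH 7.8 buffer with glutathione Sepharose beads. After four 2-min washes at 4°C, bound RNA was identified by microarray hybridisation. Enrichment was scored per heptamer motif as a one-sided Z-score across the probes containing it.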

Sequence	RNAcompete 7-mer binding Z-score
GCAAUGA	0.177
AUCGAAG	0.308
GGACAGU	1.01
GAUUCGC	-0.515
GCGGAUA	1.83
GUGCAGC	0.501
AUUCUCC	-0.679
GUAGUCA	0.253
CCAGAAC	-0.566
GAUUGUG	0.432
ACGACUU	-0.686
CAGUUUC	-0.77
UUUCGGG	0.421
ACACUAU	-0.541
ACGGCAC	-0.027
ACUACUU	-0.828
CUCAGAC	-0.643
AGCGGUU	0.778
AGCAGGA	2.45
UGGGGCC	0.76
AGACAUC	-0.748
UUACCAA	-0.617
UGAUAGC	-0.0853
GAAGGAC	2.8

Sequence	RNAcompete 7-mer binding Z-score
AUAUAAG	0.119
GGUCUAU	-0.162
UGAAAUG	0.687
CGCCUAU	-0.828
GAUGUGC	0.192
AACACUG	-0.26
GUCUGCU	-0.737
AUCCCUU	-0.788
GCGUGAC	-0.103
CCAUCGA	-0.621
CAUUCAU	-0.755
GAGACAG	0.854
UAUCAUG	-0.471
AGAAAAU	0.0859
UGGCUUU	-0.464
GUGUGUA	0.851
UGUUCUA	-0.836
AGGUGUA	1.76
GACAGUC	-0.599
GUGGACC	0.953
AGGGCGC	1.05
CUAACCG	-0.748
UUAUGAC	-0.632
AAGCACU	-0.391

Sequence	RNAcompete 7-mer binding Z-score
AGAAUGU	0.184
AGUGUAG	1.29
GCGGACG	1.5
AUUUUCG	-0.876
UACGCGA	-0.216
UGCAACC	-0.504
AAUGAGG	1.94
CCCUAGG	0.217
CACUCCA	-0.697
UAUAGUU	-0.271
AAAUUCU	-0.646
CUCCUAC	-0.832
UGCGAGA	0.192
UCGCCAA	-0.697
GCGAACU	-0.213
UUCGGCC	-0.843
AACUUCC	-0.825
UAUUGAC	-0.613
UGUAGCU	-0.34
GAGAGCG	1.33
CUGCCGU	-0.741
UGGCAUU	-0.027
UAGGAAC	1.68
CGAAACU	-0.624

Sequence	RNAcompete 7-mer binding Z-score
UCCCACC	-0.511
UCUCAAG	-0.5
UUGGAGU	1.02
ACGCAAU	-0.431
CUCUUUC	-0.821
CUUACGG	-0.326
AUCUCAG	-0.497
CGGAAAA	0.854
UGGUAUG	1.5
ACGAUGU	-0.147
UGCUAAC	-0.581
GGAAAGA	2.23
CGCCUCC	-0.795
UUAGACC	-0.781
UCUAUAA	-0.573
GCGGUGA	1.39
AAGUAGC	0.126
AUGAGCG	0.942
ACUUAAA	-0.715
AUUACGU	-0.34
GCAGAUC	-0.271
AUCGAAA	-0.471
GUUCCUC	-0.723
AUAAUGC	-0.573

Sequence	RNAcompete 7-mer binding Z-score
CAUUCCG	-0.766
UAUCUAC	-0.548
AAUUCCU	-0.872
AUUUGGU	0.381
UGGUGUA	1.24
AACCAUC	-0.712
UUGUGGG	2.44
ACAAUUA	-0.428
GCCCUCU	-0.861
UUCGCUU	-0.828
CCACAUA	-0.737
AUAGGUC	0.512
CGCUUUG	-0.715
UUUCCAC	-0.573
AGGAUUU	0.024
CAGUCCG	-0.734
GGUGCAG	2.42
ACGGAAG	1.68
UUACGUU	-0.719
AAACACC	-0.457
GGUGUAG	2.97
